Experimental data published in the supplement of paper PMC4967469.
A lower IC50 marks a more sensitive line; a fit beyond the top or the lowest dose is shown as a bound at that dose. AUC is the area under the same curve over the 256-fold range up to the top dose, as a fraction; the more sensitive the line, the further below 1. For part of these data: A top dose marked as inferred comes from the curve model; the source does not state it. For part of these data: Where an entry number is given, a second screen of the drug exists; the two often differ.

What was measured:
Assay in all cases: Viability of human cancer cell lines after 72 h of drug (GDSC screen)
[1] = compound: CC(=O)O[C@@]12CO[C@@H]1C[C@H](O)[C@@]1(C)C(=O)[C@H](O)C3=C(C)[C@@H](OC(=O)[C@H](O)[C@@H](NC(=O)OC(C)(C)C)c4ccccc4)C[C@@](O)([C@@H](OC(=O)c4ccccc4)[C@H]21)C3(C)C [Docetaxel]; conditions: top dose 0.0125 µM
Description: (§1)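 Human cancer cell lines in 384-well plates, medium with 10% serum, drug for 72 h over a 256-fold dose range (nine 2-fold or five 4-fold steps up to the top dose). Adherent lines were fixed and stained with the nucleic acid dye Syto60, suspension lines read with resazurin; signal relative to control wells, capped at 0 and 100%. One two-parameter sigmoid per drug and line, fitted in a mixed model over all curves with the slope shared within a line.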

[2] = compound: CC1(C)CNc2cc(NC(=O)c3cccnc3NCc3ccncc3)ccc21 [AMG-706]; conditions: top dose 2 µM; top dose inferred
Description: as §1

[3] = compound: CCOc1nc(NC(=O)Cc2cc(OC)ccc2OC)cc(N)c1C#N [JNK Inhibitor VIII]; conditions: top dose 10 µM; top dose inferred
Description: as §1

[4] = compound: CN1CCN(c2ccc([N+](=O)[O-])c3no[n+]([O-])c23)CC1 [NSC-207895]; conditions: top dose 20 µM; top dose inferred
Description: as §1

[5] = compound: COC(=O)[C@H](CCSC)NC(=O)c1ccc(NC[C@@H](N)CS)cc1-c1ccccc1 [FTI-277]; conditions: top dose 1.024 µM; top dose inferred
Description: as §1

[6] = compound: COCC[n+]1c2c(n(Cc3cnccn3)c1C)C(=O)c1ccccc1C2=O [YM155]; conditions: top dose 5.12 µM
Description: as §1

[7] = compound: C[C@]1(O)C[C@@H](c2nc(-c3ccc4ccc(-c5ccccc5)nc4c3)c3c(N)nccn32)C1 [OSI-906]; conditions: top dose 2.56 µM; top dose inferred
Description: as §1

[8] = compound: Cc1ccc(C(=O)N(CCCN)[C@@H](c2nc3cc(Cl)ccc3c(=O)n2Cc2ccccc2)C(C)C)cc1 [SB-715992]; conditions: top dose 0.128 µM; top dose inferred
Description: as §1

[9] = compound: Cc1sc2c(c1C)C(c1ccc(Cl)cc1)=N[C@@H](CC(=O)OC(C)(C)C)c1nnc(C)n1-2 [JQ1]
Description: as §1

[10] = compound: O=C(/C=C/c1cccc(S(=O)(=O)Nc2ccccc2)c1)NO [Belinostat]; conditions: top dose 20 µM; top dose inferred
Description: as §1

[11] = compound: c1ccc2c(CCNc3ccc(Nc4ccncc4)cc3)c[nH]c2c1 [JNJ-26854165]; conditions: top dose 10 µM
Description: as §1

[12] = top dose 1 µM, screen: GDSC drug entry 1218, top dose inferred
[13] = top dose 2.56 µM, screen: GDSC drug entry 163

| Cell Line | AUC [1] | IC50 [1] | AUC [2] | IC50 [2] | AUC [3] | IC50 [3] | AUC [4] | IC50 [4] | AUC [5] | IC50 [5] | AUC [6] | IC50 [6] | AUC [7] | IC50 [7] | AUC [8] | IC50 [8] | AUC [9, 12] | IC50 [9, 12] | AUC [9, 13] | IC50 [9, 13] | AUC [10] | IC50 [10] | AUC [11] | IC50 [11] |
| --- | --- | --- | --- | --- | --- | --- | --- | --- | --- | --- | --- | --- | --- | --- | --- | --- | --- | --- | --- | --- | --- | --- | --- | --- |
| HuP-T3 (pancreas, adherent) | 0.761 | 5.37 nM | 0.973 | > 2000 nM | 0.96 | > 10000 nM | 0.916 | > 20000 nM | 0.934 | > 1020 nM | 0.042 | < 20 nM | 0.922 | > 2560 nM | 0.879 | > 128 nM | 0.974 | > 1000 nM | 0.842 | 2430 nM | 0.46 | 950 nM | 0.943 | > 10000 nM |
| NCI-H2110 (non-small cell lung carcinoma, adherent) | 0.71 | 3.1 nM | 0.986 | > 2000 nM | 0.979 | > 10000 nM | 0.8 | 9970 nM | 0.956 | > 1020 nM | 0.04 | < 20 nM | 0.669 | 480 nM | 0.803 | 65.2 nM | 0.974 | > 1000 nM | 0.818 | 1500 nM | 0.364 | 521 nM | 0.929 | > 10000 nM |
| NCI-H2347 (lung adenocarcinoma, adherent) | 0.856 | > 12.5 nM | 0.981 | > 2000 nM | 0.982 | > 10000 nM | 0.95 | > 20000 nM | 0.975 | > 1020 nM | 0.038 | < 20 nM | 0.93 | > 2560 nM | 0.967 | > 128 nM | 0.981 | > 1000 nM | 0.743 | 944 nM | 0.505 | 1290 nM | 0.837 | 8850 nM |
| VMRC-RCZ (kidney, adherent) | 0.683 | 2.78 nM | 0.984 | > 2000 nM | 0.984 | > 10000 nM | 0.87 | > 20000 nM | 0.98 | > 1020 nM | 0.077 | < 20 nM | 0.968 | > 2560 nM | 0.82 | 89.8 nM | 0.972 | > 1000 nM | 0.563 | 246 nM | 0.44 | 836 nM | 0.904 | > 10000 nM |
| NY (osteosarcoma, adherent) | 0.62 | 1.67 nM | 0.982 | > 2000 nM | 0.968 | > 10000 nM | 0.989 | > 20000 nM | 0.988 | > 1020 nM | 0.909 | > 5120 nM | 0.953 | > 2560 nM | 0.989 | > 128 nM | 0.986 | > 1000 nM | 0.818 | 1420 nM | 0.948 | > 20000 nM | 0.904 | > 10000 nM |
